The text below walks through data of patent US7157092B1, “Acyl pseudodipeptides, preparation method and pharmaceutical compositions containing same” (Om Pharma, priority 1998, dated 2007).

The experiment relates to predendritic cells (DC-6). Kind of experiment: Dendritic cell maturation: expression of CD40, CD80, CD83, CD86 surface markers. To be noted: DC-9 stage. How it is done:
Cells: Mononucleated cells of peripheral blood are isolated from buffy coats of six healthy donors.
These cells are called predendritic cells (DC-6). Maturation of predendritic cells into mature dendritic cells is achieved by incubating cells with OM-294-MP, OM-294-DP or LPS for 3 further days at concentrations set below under Product section. At day 9, (DC-9) cells were harvested and analyzed for different indicators of dendritic cell maturation: assessment of CD40, CD80, CD83, CD86 surface markers as well as of their ability to take up FITC-Dextran conjugate. All theses parameters are analyzed by an EPICS-XL-MCL model FACS (Coulter Immunology, Hialeah, Finland).
Data analysis: Expression of surface markers is expressed as % of mean fluorescence of cells stimulated by LPS (positive control); FITC-Dextran conjugate take-up is calculated with respect to take-up rate for cells maintained in basic medium and is expressed in %. Statistic analysis by t-student test involves comparing data obtained from different tests with the data of a positive control. Data significance level is set at p<0.05.
Reference Product: E. coli lipopolysaccharide (LPS, DIFCO, Detroit, Mich., USA), as a 5 mg/ml stock solution in PBS. An intermediate 100 μg/ml solution is prepared in RPMI 1640 culture medium. […]

Each structure is given as a SMILES string.

In the case of `CCCCCCCCCCCC(=O)O[C@H](CCCCCCCCCCC)CC(=O)NC(CCOP(=O)(O)O)C(=O)NCCCC(COP(=O)(O)O)NC(=O)C[C@H](O)CCCCCCCCCCC` (stereo partly drawn) [OM-294-DP, 3-[(R)-3-dodecanoyloxytetradecanoylamino]-4-oxo-5-aza-9-[(R)-3-hydroxytetradecanoylamino]decan-1,10-diol 1, 10-bis(dihydrogenphosphate)], the “effect upon expression of the investigated markers (CD40, CD80, CD83, CD86), % of LPS action” value is not above 20%.
